Experimental data: PubChem BioAssay AID504333 (National Center for Advancing Translational Sciences (NCATS), 2011)
Out of some 360,000 compounds screened, about 16,000 (4.4%) were called active. This list was built around the results that the source calls inconclusive (neither active nor inactive); the mix of calls is not that of the screen. Calls follow the shape of the dose curve; as a rule, active = well fitted inhibition curve with a large enough effect; inconclusive = small, poorly fitted or top-dose-only effect; inactive = no such curve, though single readings can be large or run the other way. Potencies beside an inconclusive call are fits to weak or partial responses and may not hold up.

The compounds below were run against Bromodomain adjacent to zinc finger domain protein 2B (Homo sapiens) (UniProt Q9UIF8) (assay: qHTS Assay for Inhibitors of BAZ2B). Settings: AlphaScreen BAZ2B-H3K14Ac peptide displacement; activity change, negative = inhibition: at 114 µM (top of the series).
Sequence of UniProt Q9UIF8 (Q9UIF8 whole entry, looked up, the tested form may be a part): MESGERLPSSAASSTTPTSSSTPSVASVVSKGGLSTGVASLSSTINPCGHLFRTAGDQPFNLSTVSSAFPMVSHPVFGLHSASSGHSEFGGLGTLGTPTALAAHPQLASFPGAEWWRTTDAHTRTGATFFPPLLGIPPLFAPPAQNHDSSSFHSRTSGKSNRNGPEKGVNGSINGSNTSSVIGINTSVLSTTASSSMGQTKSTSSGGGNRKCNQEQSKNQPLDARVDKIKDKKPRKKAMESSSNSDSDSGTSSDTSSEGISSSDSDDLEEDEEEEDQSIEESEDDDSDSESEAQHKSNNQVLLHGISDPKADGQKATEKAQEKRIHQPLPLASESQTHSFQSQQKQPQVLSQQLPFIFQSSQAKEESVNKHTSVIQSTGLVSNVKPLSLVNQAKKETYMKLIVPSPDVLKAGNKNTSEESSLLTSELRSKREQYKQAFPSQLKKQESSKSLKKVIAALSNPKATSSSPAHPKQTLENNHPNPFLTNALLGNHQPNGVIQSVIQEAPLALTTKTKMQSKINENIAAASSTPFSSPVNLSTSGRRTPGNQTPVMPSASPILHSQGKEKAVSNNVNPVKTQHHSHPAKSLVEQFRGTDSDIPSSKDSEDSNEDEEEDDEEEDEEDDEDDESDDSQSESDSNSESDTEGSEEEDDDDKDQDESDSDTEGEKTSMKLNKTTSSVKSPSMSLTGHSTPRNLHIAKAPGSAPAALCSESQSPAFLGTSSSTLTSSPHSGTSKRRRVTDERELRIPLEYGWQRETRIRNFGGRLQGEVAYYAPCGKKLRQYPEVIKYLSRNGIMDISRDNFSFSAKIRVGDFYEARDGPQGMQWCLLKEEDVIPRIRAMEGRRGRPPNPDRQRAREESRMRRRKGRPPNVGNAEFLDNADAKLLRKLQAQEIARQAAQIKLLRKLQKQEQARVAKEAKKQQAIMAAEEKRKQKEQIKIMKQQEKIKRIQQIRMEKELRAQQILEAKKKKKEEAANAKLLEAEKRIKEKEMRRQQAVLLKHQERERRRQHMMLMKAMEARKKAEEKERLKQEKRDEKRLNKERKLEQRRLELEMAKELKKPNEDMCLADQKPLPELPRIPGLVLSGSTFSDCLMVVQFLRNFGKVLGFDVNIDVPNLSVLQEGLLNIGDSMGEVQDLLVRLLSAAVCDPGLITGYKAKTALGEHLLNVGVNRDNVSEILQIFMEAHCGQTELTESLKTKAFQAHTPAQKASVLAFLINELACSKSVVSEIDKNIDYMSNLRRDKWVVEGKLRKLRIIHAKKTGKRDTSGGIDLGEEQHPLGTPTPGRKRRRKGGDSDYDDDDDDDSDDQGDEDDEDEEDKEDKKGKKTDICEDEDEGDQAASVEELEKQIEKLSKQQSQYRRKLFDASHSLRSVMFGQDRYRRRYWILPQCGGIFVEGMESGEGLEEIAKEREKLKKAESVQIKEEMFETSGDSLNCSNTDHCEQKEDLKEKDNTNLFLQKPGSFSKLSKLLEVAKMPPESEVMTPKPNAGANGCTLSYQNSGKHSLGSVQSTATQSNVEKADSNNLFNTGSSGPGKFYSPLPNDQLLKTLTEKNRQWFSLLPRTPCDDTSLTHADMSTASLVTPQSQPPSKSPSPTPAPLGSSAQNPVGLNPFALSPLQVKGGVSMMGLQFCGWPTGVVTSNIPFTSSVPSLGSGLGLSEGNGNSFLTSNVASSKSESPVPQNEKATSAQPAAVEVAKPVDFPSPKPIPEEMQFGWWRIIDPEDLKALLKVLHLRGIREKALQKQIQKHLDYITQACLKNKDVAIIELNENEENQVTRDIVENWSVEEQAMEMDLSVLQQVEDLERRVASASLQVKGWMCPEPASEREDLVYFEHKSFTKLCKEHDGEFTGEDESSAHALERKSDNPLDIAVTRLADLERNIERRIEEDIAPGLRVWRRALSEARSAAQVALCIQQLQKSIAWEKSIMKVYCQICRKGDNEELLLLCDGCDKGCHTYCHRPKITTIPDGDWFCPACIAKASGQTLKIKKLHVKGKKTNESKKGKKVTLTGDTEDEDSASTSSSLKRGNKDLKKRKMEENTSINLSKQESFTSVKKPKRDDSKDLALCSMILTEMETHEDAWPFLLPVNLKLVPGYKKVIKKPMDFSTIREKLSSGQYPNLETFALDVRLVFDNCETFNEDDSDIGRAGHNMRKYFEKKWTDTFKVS
Summary of the method: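 BAZ2B (50 nM) with biotin-H3(5-23)K14Ac peptide (50 nM) in PBS pH 7.4, 0.01% Tween-20, preformed 30 min, then compound 30 min at room temperature; top concentration 110uM. AlphaScreen streptavidin donor/nickel chelate acceptor beads (10 ug/mL final), 20 min dark, signal read.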
% is scaled to controls: 0 for no effect and ±100 for the full control effect; potency is read from the fitted curve at half-maximal effect; tags tell the direction and shape of the fitted curve.
Also: nearly all actives have a fitted effect of over 60% in size.

Row | SMILES | Potency | activity change, negative = inhibition
1 | CCCCC1=CC2=C(c3ccco3)C(=O)C(C)(OC(=O)c3ccc(OC)cc3)C(=O)C2=CN1Cc1ccco1 (stereo not drawn) | inconclusive: 28.2 µM [inhibitor, partial curve] | 
2 | O=C(CC(c1ccccc1)c1cc(Br)ccc1O)NCc1ccco1 (stereo not drawn) | inconclusive: 89.1 µM [inhibitor, single point] | 
3 | CC(=O)N1CCN(c2ccc(NCc3ccc(Br)o3)cc2)CC1 | inconclusive: 89.1 µM [inhibitor, single point] | 
4 | C/C(=C\C(=O)c1ccc(Cl)cc1)Nc1ccc(N2CCOCC2)cc1 |  | inactive: 0.416%
5 | Cc1cccc(C)c1C(OCCN(C)C)C1CCCCC1 (stereo not drawn) | inconclusive: 89.1 µM [inhibitor, single point] | 
6 | COc1ccc2cc(C(=O)NCc3ccccc3)c(=O)oc2c1 |  | inactive: -4.92%
7 | COc1ccc(NC(=O)CCc2nnc3ccc(NCc4ccco4)nn23)cc1OC | inconclusive: 70.8 µM [inhibitor, single point] | 
8 | COc1ccc(/C=C2\SC(=S)N(CCC(=O)Nc3cccc(C(=O)O)c3)C2=O)cc1OC | active: 50.1 µM | 
9 | CCOc1ccc(CN(C)C(=O)CNC(=O)C2CCCCC2)cc1 |  | inactive: -34.6%
10 | CCOC(=O)c1ccc(-n2c(CCC(=O)O)ccc2-c2ccccc2)cc1 | inconclusive: 70.8 µM [inhibitor, partial curve] | 
11 | COc1ccc(C(=O)CC2(O)C(=O)N(Cc3cccc(C(F)(F)F)c3)c3ccccc32)cc1 (stereo not drawn) | inconclusive: 79.4 µM [inhibitor, single point] | 
12 | Cc1ccc(-n2cc(CNCCc3ncc(C)[nH]3)c(-c3ccc(F)cc3)n2)cc1 | inconclusive: 50.1 µM [inhibitor, partial curve] | 
13 | CCOc1nc(NCc2ccco2)nc(Nc2ccc(OC)cc2)n1 | active: 50.1 µM | 
14 | CCOc1ccc(/C=N/NC(=O)NC23CC4CC(CC(C4)C2)C3)cc1O | inconclusive: 79.4 µM [inhibitor, single point] | 
15 | O=C(CCN1C(=O)/C(=C\c2ccccc2)SC1=S)Nc1ccc(C(=O)O)cc1 | active: 56.2 µM | 
16 | Cc1cc(NCCOCCO)n2c(nc3ccccc32)c1C#N |  | inactive: 9.39%
17 | OCCCn1c(-c2ccc(F)cc2)csc1=Nc1ccc(F)cc1 | active: 44.7 µM | 
18 | CC(C)c1ccc(C(=O)NC(=S)NCc2cccnc2)cc1 | inconclusive: 89.1 µM [inhibitor, single point] | 
19 | CCN1CCCc2cc(CN(CCN3CCOCC3)C(=S)Nc3ccc(OC)c(Cl)c3)ccc21 | inconclusive: 79.4 µM [inhibitor, partial curve] | 
20 | COc1cc(OC)c(NC2=C(c3ccc(C(F)(F)F)cc3)C(=O)c3ccccc32)cc1Cl | inconclusive: 8.91 µM [inhibitor, partial curve] | 
21 | CC(=Nc1ccc(C)c(C)c1)C1=C(O)CCC1=O | inconclusive: 31.6 µM [inhibitor, full curve, poor fit] | 
22 | CC(=O)c1ccc(-n2c(CCC(=O)O)ccc2-c2cccs2)cc1 | inconclusive: 89.1 µM [inhibitor, single point] | 
23 | O=C(CCS(=O)(=O)c1ccccc1)N(Cc1cccnc1)c1nc2ccc(F)cc2s1 |  | inactive: 1.34%
24 | O=S(=O)(c1ccc(Cl)s1)N1CCN(C/C=C/c2ccccc2)CC1 |  | inconclusive: -114% [inhibitor]
25 | CCN1CCN(CCCNC(=O)C2c3ccccc3C(=O)N(c3ccc(OC)cc3)C2c2ccc(OC)cc2)CC1 (stereo not drawn) |  | inactive: -8.28%

Row | SMILES | Potency | activity change, negative = inhibition
26 | COc1ccc(-c2cnc(C)o2)cc1S(=O)(=O)Nc1ccc(OC(F)(F)F)cc1 | inconclusive: 70.8 µM [inhibitor, single point] | 
27 | CCC(C)C(NC(=O)[C@@H](NC(=O)c1ccccc1F)C(C)C)C(=O)OC (stereo partly drawn) | inconclusive: 0.708 µM [inhibitor, full curve, poor fit] | 
28 | Cc1ccc(O)c(C2=Nc3ccccc3N=C(c3cccc([N+](=O)[O-])c3)C2)c1 | inconclusive: 22.4 µM [inhibitor, full curve] | 
29 | O=C(NC(=S)Nc1ccc2c(c1)OCO2)c1ccccc1 | inconclusive: 39.8 µM [inhibitor, partial curve] | 
30 | CCSc1cc(C)nc2c(-c3ccc(Cl)cc3)c(C)nn12 |  | inactive: -2.53%
31 | O=C1OCC(CO)(CO)N=C1NNc1ccccc1[N+](=O)[O-] |  | inactive: -36.6%
32 | COc1ccccc1N1C(=O)CSC1=S | inconclusive: 89.1 µM [inhibitor, single point] | 
33 | O=C(O)c1cc2c(N3CCC(Cc4ccccc4)CC3)ncnc2s1 | inconclusive: 89.1 µM [inhibitor, single point] | 
34 | CSCCC(NC(=O)c1ccc(Cl)cc1)C(=O)OCC(=O)NCc1ccco1 (stereo not drawn) |  | inactive: -29.5%
35 | CC(=O)c1cccc(NS(=O)(=O)c2cc3c(cc2C)n(C)c(=O)c(=O)n3C)c1 |  | inactive: 0.567%
36 | O=C(c1cc(-c2ccc(Cl)cc2Cl)on1)N1CCN(C(=O)c2ccco2)CC1 | inconclusive: 44.7 µM [inhibitor, partial curve] | 
37 | Cc1ccc2[nH]c(=S)cc(C)c2c1 |  | inactive: 3.67%
38 | CCOc1ccc(OCC)c(NC(=O)c2cc3ccccn3n2)c1 | inconclusive: 70.8 µM [inhibitor, single point] | 
39 | CCC(=O)Nc1nc(N)n(-c2ccccc2)n1 | inconclusive: 89.1 µM [inhibitor, single point] | 
40 | O=S(=O)(c1ccc(Cl)cc1)c1nc(-c2ccco2)oc1SCc1ccccc1F |  | inactive: -24.3%
41 | Cc1c(C)n(Cc2ccc(F)cc2)c2ccc(C(=O)NCCN3CCOCC3)cc12 | active: 50.1 µM | 
42 | COc1ccccc1NC(=O)C1=C(C)Nc2nc(-c3ccc(N(C)C)cc3)nn2C1c1ccncc1 (stereo not drawn) | active: 50.1 µM | 
43 | CC(=O)c1cccc(NC(=O)CCCNC(=O)c2ccc(Cl)cc2)c1 | inconclusive: 89.1 µM [inhibitor, single point] | 
44 | CC(C(c1cccs1)c1c(N)n(C)c(=O)n(C)c1=O)[N+](=O)[O-] (stereo not drawn) | inconclusive: 79.4 µM [inhibitor, single point] | 
45 | O=C(c1ccccc1)c1c[nH]c(C(=O)C(Cl)(Cl)Cl)c1 | inconclusive: 89.1 µM [inhibitor, single point] | 
46 | COc1ccc(Cn2nnnc2C(c2cc3cc(C)ccc3[nH]c2=O)N2CCN(C)CC2)cc1 (stereo not drawn) |  | inactive: -27.5%
47 | CCOC(=O)c1[nH]c2ccc(OCC)cc2c1NC(=O)CN1CCN(c2ccccc2)CC1 | inconclusive: 70.8 µM [inhibitor, single point] | 
48 | Cc1c(CCOC(=O)c2ccc([N+](=O)[O-])cc2)sc[n+]1CC(=O)c1ccccc1 | inconclusive: 25.1 µM [inhibitor, full curve] | 
49 | CCOC(=O)N1CCN(c2c(N3CCN(c4cc(C)ccc4C)CC3)c(=O)c2=O)CC1 | inconclusive: 89.1 µM [inhibitor, single point] | 
50 | CCOC(=O)c1c(NC(=O)c2cc(=O)c3cc(C)cc(C)c3o2)sc(C)c1C |  | inactive: -3.93%

Row | SMILES | Potency | activity change, negative = inhibition
51 | COc1ccc(-c2nc3ccccn3c2CN2CCN(c3ccccc3F)CC2)cc1 | inconclusive: 44.7 µM [inhibitor, partial curve] | 
52 | CC(CNc1ccc([N+](=O)[O-])c2cccnc12)Nc1c([N+](=O)[O-])cc(C(F)(F)F)cc1[N+](=O)[O-] (stereo not drawn) | inconclusive: 3.55 µM [inhibitor, full curve, poor fit] | 
53 | CC(=O)Nc1ccc(S(=O)(=O)N2CCN=C2SCc2ccc([N+](=O)[O-])cc2)cc1 |  | inactive: -19.5%
54 | O=C(c1ccco1)N1CCN(Cc2nnc(-c3ccccc3F)o2)CC1 |  | inactive: 2.49%
55 | CSc1ccc(NC(=O)CSc2nc3[nH]c(=O)cc(O)c3s2)cc1 |  | inactive: 3.62%
56 | COc1ccc(OC)c(C2=NNC(=NCc3ccc4c(c3)OCO4)SC2)c1 | inconclusive: 50.1 µM [inhibitor, partial curve] | 
57 | Cc1ccc(NC(=O)c2ccc(CN3CC(=O)N4CCCCC4C3=O)cc2)c(C)c1 (stereo not drawn) | inconclusive: 89.1 µM [inhibitor, single point] | 
58 | COCCn1c(-c2ccc(OC(F)(F)C(F)C(F)(F)F)cc2)nc2c1c(=O)[nH]c(=O)n2CC(C)C (stereo not drawn) |  | inactive: -4.2%
59 | CC(C)OCCCNCC(O)c1ccccc1 (stereo not drawn) | active: 79.4 µM | 
60 | CCCCCn1c(CNC(C)=O)nc2ccccc21 |  | inactive: 11%
61 | Cc1cc(=O)[nH]c2c(N=Nc3ccc(O)cc3)c(N)nn12 |  | inactive: 2.86%
62 | Cc1cccc(CSc2ccc(-c3ccco3)nn2)c1 |  | inactive: -37.8%
63 | CCC(Oc1ccccc1)C(=O)Nc1ccc(S(=O)(=O)Nc2cc(C)on2)cc1 (stereo not drawn) |  | inactive: -20.7%
64 | CN(C)c1ccc(Nc2ncnc3sc4c(c23)CCCC4)cc1 | active: 31.6 µM | 
65 | COC(=O)c1ccccc1NC(=O)CCCn1c(=O)c2cccn2c2cccnc21 |  | inactive: -10.8%
66 | Cc1cc(C)n(C(=O)C(C)N2C(=O)c3ccccc3C2=O)n1 (stereo not drawn) |  | inactive: 1.7%
67 | CCOC(=O)C(Cc1c[nH]c2ccccc12)NC(=O)COc1ccc(CC)cc1 (stereo not drawn) | inconclusive: 28.2 µM [inhibitor, full curve, poor fit] | 
68 | CCCCNc1oc(-c2ccc(COc3ccc(OC)cc3)o2)nc1C#N |  | inactive: -18.7%
69 | CC(C)(C)c1ccc(N/N=C(\C#N)S(=O)(=O)C(C)(C)C)cc1 | inconclusive: 22.4 µM [inhibitor, single point] | 
70 | Cc1cc(SCC(=O)N/N=C/c2ccc(O)c(O)c2)c(C)cc1Br | inconclusive: 79.4 µM [inhibitor, single point] | 
71 | Cn1c(=O)c2c(-c3ccccc3)n(Cc3ccccn3)cc2n(C)c1=O | active: 50.1 µM | 
72 | CCN1CCN(CC(=O)N/N=C/c2ccc(F)cc2F)CC1 | active: 50.1 µM | 
73 | COc1cc(/C=N/NC(=O)C(=O)/C=C2\NC3(CCCC3)Cc3ccccc32)ccc1O | inconclusive: 31.6 µM [inhibitor, full curve] | 
